Here are results for 93 sequences from publication PMC10726135.

This is one part of the list. At the low end of the ranking, values are background and their order means little. The protein was read in a cell extract, so binding may be indirect.

For this test, the target named is T1, HNF4alpha2 (COS-7 nuclear extract) (UniProt P41235).
T1 sequence: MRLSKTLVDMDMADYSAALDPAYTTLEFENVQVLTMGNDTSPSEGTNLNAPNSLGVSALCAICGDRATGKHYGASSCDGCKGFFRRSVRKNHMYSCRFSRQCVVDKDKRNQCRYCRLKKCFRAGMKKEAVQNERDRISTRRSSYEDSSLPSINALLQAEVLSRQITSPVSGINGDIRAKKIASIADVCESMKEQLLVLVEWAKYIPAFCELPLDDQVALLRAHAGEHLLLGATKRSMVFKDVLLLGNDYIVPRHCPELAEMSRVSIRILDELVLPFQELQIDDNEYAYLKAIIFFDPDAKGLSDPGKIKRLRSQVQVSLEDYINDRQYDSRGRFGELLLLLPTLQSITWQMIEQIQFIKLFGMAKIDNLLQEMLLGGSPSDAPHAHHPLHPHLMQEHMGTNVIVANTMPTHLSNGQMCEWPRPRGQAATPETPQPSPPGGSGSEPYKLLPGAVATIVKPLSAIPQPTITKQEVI
Description: protein-binding microarray. As to conditions: COS-7 nuclear extract on double-stranded Agilent 4x180k PBM; binding buffer, salt, pH and temperature not given; high values mean tight binding; double strand, one strand shown; sequences stand for … in …GCCTAGGGAGATTAGAGTATCGGTCGA
In the case of ATTCCTAGATATCAGGAAGGTCAGAAAGCA, the binding signal (log2 normalized intensity) is -0.0278.

AGTATTACCATGTCCTGTGATTAAGGTCAA: the binding signal (log2 normalized intensity) is 2.32.

For TCTCTCTTTTTCTGAGCCTGGGTCACCCCT, the binding signal (log2 normalized intensity) was 2.15. The value for ACAAGTATACCTGTACACTTACAAGTGTAC was 0.94; that for ACAGCTTTGGGCATACAAAACAACCACTCT was -1.1. As for CAGAGGAGGCACTTGTCTCACATCTGATAG, the binding signal (log2 normalized intensity) is -0.0984.

For the sequence AAAACAGCCCTAACCAGGGGTGGGGACCTT, the binding signal (log2 normalized intensity) was -0.891. The value for TAAGAGGCATGAGGTTCTTGTAAGGTTCTT was 0.28; that for CGAGGAGGCTGAGGCAGGATGACTGCTTGA was -1.15; that for TAGCCTAAACTATCTGGTGCGGTCCAAGAC was -1.3. The value for GTCAGGACCTTTCTTTATGGACCTTGTCCC was 5.94. As for CTCTCTTCTTGTAATCCCATTTCCCTTGTT, the binding signal (log2 normalized intensity) was determined as 2.36. The value for TCAGTTGGTCCAAGGTACATGTCTCTGCTC was 1.73; that for TACTCTTATCAGCAGTGACTTGAGAGGCCA was 1.13.

In the case of CTCCAACATGACCACCTGGTTTAAGTCACT, the binding signal (log2 normalized intensity) is -1.08. On to CAATGAGAAACCTCAAAGGTTAGGGGGATT, for which the binding signal (log2 normalized intensity) was -1.25. In the case of TTGCACCCAGGCCGTTGGACCAAGCTCTAG it was -1.15; in that of CCAAAGAGAAGCCTAAGCAGGGCTAGACTT, -1.18. In the case of TCTTGCTTCGCTCTCTTCTGGTGATCAAAC, the binding signal (log2 normalized intensity) is 0.274. In the case of CGAGCTGAGGCCAGACAGGGGGGCGCCTAC it was -1.05; in that of GCTGGGTATACTGACTAGGACAGAGCAGAT, -0.403. The value for GGGTAGGCAGACAGGTTGGAGACGCAGAGA was -1.1. The value for ACTTCAGCCTTTGAGAAGCAGGAGCATGGG was -1.12; that for GTCTCTGCTCCTAAAATTATGCCATTCTTT was 0.0244; that for GTCAGGGCTAGGCTGATAAGGAGGGTAACA was -1.06. As for GAGTTATTTCATAGACTGTCCCTCAGTGTG, the binding signal (log2 normalized intensity) turned out to be 1.92. In the case of GAAGTCCAGTAGCTCAATCAAGGTTCACTG it was 1.17. The value for AACAGCACAAGCAATGGCTGGGTCTAAGGG was -1.02; that for GCAAAGATCACCTGGTGGCCATCAAGCAGA was -1.13; that for GACCTTCGGCCTCAATTATAACTCATGTTC was 3.32.

As to ATTTCTGAGAGAGAAAGAGACAGAGAGAGA, the binding signal (log2 normalized intensity) is -1.19. Take TGGACTTTCAACTGCAGGGGGGTGGGCACC: the binding signal (log2 normalized intensity) is 1.78.

With AATCTGGCTGCAGAGTCCAAGATGCTGTCT, the binding signal (log2 normalized intensity) is 1.27.

AGAGCAAAGGTTACTGCAGAGAAGAAGCTT: the binding signal (log2 normalized intensity) is 0.595.

Take ACGCCAGCAGCAGGGTCAGAAGGGAGGTAG: the binding signal (log2 normalized intensity) was -1.14. The value for TATTTCACCCCAGCAAACAGGTCCTGCTGG was -1.12; that for CCACAGATGATCAAAGGTCAGTCTTAGGAC was 4.8.

As to CCGCGGCGGGCCCTCGACCTTTGCCCTCCA, the binding signal (log2 normalized intensity) was found to be 9.87.

Turning to TCAATTATCACCACACAGCACGTAATAGTT, the binding signal (log2 normalized intensity) is -0.161.

Turning to TCAAGATTTTACCTACTTCCTTTATTCACT, the binding signal (log2 normalized intensity) is -1.23. The value for TATTAGGCATTTCATTTGCCCAGCTGTTCC was -0.0445; that for TTTTGCAACATGAGGAGCCAAGTTTTGCAA was -1.09. On to TGGCCACTCCCTGATAGAGAACAAGGTTCC, for which the binding signal (log2 normalized intensity) is -0.772. The value for ACAGATAGCATAATCAAAGAGAAAAACATT was -0.839; that for GGGCTTCAGGGTAAATCCCGTCCCTGCCAA was 0.623. In the case of CGAGCGCTGCTTCTCGTCCCCGCCCGAGCC it was 3.24; in that of TCCCAATCTCTGTGGGAGGGAAGGAGCCTA, -1.17.

Regarding ACCCAGGTGTGTTGCAACTTTGACTATAGC, the binding signal (log2 normalized intensity) is 0.777.

As to AACTCAAAGATTCTTAGAGAGTTGGGCAAG, the binding signal (log2 normalized intensity) is -0.976. The value for GGATTTCCGTAACCTCACAGAAATCCAAAG was -1.14; that for CAAACACGGACAGGCAGGCCCAGACATGTC was -0.876; that for GTGAATGACCCCTCCCCTCCCCCTTGGTGT was 5.61. Regarding ACACAGGATTGAACCTCTGGAATTCATCTC, the binding signal (log2 normalized intensity) stood at 0.145.

In the case of AATGAGATCTCCCCACATTCCAACACAGGG, the binding signal (log2 normalized intensity) is 0.0808. Consider CTTTAAGGTCACATAGCAGGCATACCAGGC, for which the binding signal (log2 normalized intensity) turned out to be 0.0309. On to CTTGTCCAACTCCCCTCCCAAGGCAGCAAT, for which the binding signal (log2 normalized intensity) is 4. Regarding TAACTCAAACATCTGACAGAGATAAGGAAG, the binding signal (log2 normalized intensity) is -1.09.

On to ATCAGAGCATGCATACGTGAAAGTAAAGAG, for which the binding signal (log2 normalized intensity) is -1.03. For the sequence AGCTGTGCGGTAGGCATTGAGGCAGCCAGC, the binding signal (log2 normalized intensity) was -1.15. The value for TTCATCTGGGACGTGGCTCAAGATTACAGG was -0.0321; that for ATTCACTTTTTGGCCTTTGGCTGTTCGATG was 2.51.

GTTTCGCAAGGACGTGACCTTTATGGGAAA: the binding signal (log2 normalized intensity) came out at 3.06.

Consider GAGTACATGCCTCTCCCAGTGGAATGCAAA, for which the binding signal (log2 normalized intensity) was 0.217. In the case of ACAAAGATCCCTTATTTGCATGAAGCACAA, the binding signal (log2 normalized intensity) was -1.2. The value for ATGGTTTACCATATTTACTTATGGTTTGAC was 1.43; that for TCATGATTAGATTGAAGTTACGTATTTTTG was 1.18; that for AAGGCAAGGGTCAAGATGTCTCAAGATATC was 0.739. The value for ATAAGAAGGGGTCAGACCAGACAGCACCTC was -1.07; that for AGAAGCCACTGCGACCTTTGCCCTCCCTAA was 7.38. For ATGGTGCCTATTTGTCCCTGACCAAACTCA, the binding signal (log2 normalized intensity) was -1.1. For the sequence TTAAAGTGCCATTGAGATGGTAACCACACC, the binding signal (log2 normalized intensity) is -1.16. As for TCTGTGTGTATGTGTGTGTACACATTGATA, the binding signal (log2 normalized intensity) amounted to 2.42.

For the sequence ATGTGGTCAAAACTTTGTTTGAGTTCCAAA, the binding signal (log2 normalized intensity) came out at 1.07. In the case of CAGCTTCAGGAGCTGCAGGGAAGCCCCTGC it was -0.871; in that of ATAGAAAGCCTTTGAACTGTGTTGCAAATT, 0.837. The value for GGTCAAGAGGGACAAAATGCCCAGGATTCC was -1.09. In the case of AGCATATTTGGCCACATCCTGTCTCCTTTA it was -0.0236; in that of GCCACTGAACTTTCACTGCCTATCTCCTAT, -0.0469. Take CCTGACATTCTTGAGCTGCTAAACCAACAC: the binding signal (log2 normalized intensity) is -1.1. In the case of TCCCAGATGCTGACCATATTCCAAATTCCA it was 0.217. The value for CCCTGTTTAGAATTCTGCCTCCCCCACCCC was 6.11; that for CAAACCGAGATCAAGGGACAGAGATAACTG was -1.18; that for GTGGCCTTTGTCCTAGTGCATGCTGGGAGT was 1.74.

As to GAATCTGGACAGTGTAAGATAAAAATCAGA, the binding signal (log2 normalized intensity) is -1.14. TTCCCTCCCTCCCAGTACAAAGTTCACTTT: the binding signal (log2 normalized intensity) was found to be 6.44. As to TGCCCTTTGCCTGGTGATCTTTGTTAGACC, the binding signal (log2 normalized intensity) turned out to be 2.7.

In the case of CCAAGCAGTGATATTCTCTCGTCACCTCCA, the binding signal (log2 normalized intensity) was -1.14. The value for CTCCACTGGGAATGACATTTTGGACTACTT was 1.71.

Consider CATTCAGATAAATGGTGTAGAGGCCAGAGG, for which the binding signal (log2 normalized intensity) is -0.833. In the case of ACAGAGGCAGTGGGACAATGAAGCCTAAAT it was -1.06; in that of TCTTTCCACTTGGGCTTCCTCATCTGTTTA, 1.16; in that of GGAATGCAGTGGCGCAATCTCAGCTCAATC, -1.1. Consider CCCTTTTTCTGTAAAGCTTTATTTTGGGGC, for which the binding signal (log2 normalized intensity) stood at 1.49.
